The list shows a part of the results. Many values rest on one well or one pass, so single values are uncertain.
What follows are molecules tested on hiPSC-derived cardiomyocytes (assay: time to death of most cells in well after compound addition (days); higher = less cardiotoxic; extreme values may be limits of the assay). Conditions: screen: 4; 10 µM.

| SMILES | time to death of most cells in well |
| --- | --- |
| COc1ccc(-c2nc(N3CCOCC3)c3sc(CN(C)c4ncc(C(=O)NO)cn4)cc3n2)cn1 | 5 |
| CN1CCC(Nc2nc(Nc3ccc(Oc4ccccc4)cc3)c3c(=O)[nH]cc(Br)c3n2)CC1 | > 7 |
| COc1cc2ncnc(Nc3ccc(Cl)cc3F)c2cc1OC | 1 |
| Oc1ccc(Nc2nc(-c3ccc(Cl)cc3)cs2)cc1 | > 7 |
| C[C@H](Nc1ncnc2nc[nH]c12)c1cc2cccc(Cl)c2c(=O)n1-c1ccccc1 [Duvelisib (IPI-145, INK1197)] | > 7 |
| Cc1ccc(Nc2nccc(N(C)c3ccc4c(C)n(C)nc4c3)n2)cc1S(N)(=O)=O [Pazopanib] | > 7 |
| COc1cc2ncc(-c3ccccc3)nc2cc1OC [Tyrphostin AG 1296] | > 7 |
| COc1ccc(-c2cc3c(C)nc(N)nc3n([C@H]3CC[C@H](OCCO)CC3)c2=O)cn1 | > 7 |
| CNC(=O)Nc1ccc(-c2nc(N3CC4CCC(C3)O4)c3cnn(C4CCC5(CC4)OCCO5)c3n2)cc1 | > 7 |
| CO[C@H]1C[C@@H]2CC[C@@H](C)[C@@](O)(O2)C(=O)C(=O)N2CCCC[C@H]2C(=O)O[C@H]([C@H](C)C[C@@H]2CC[C@H](n3cnnn3)[C@H](OC)C2)CC(=O)[C@H](C)/C=C(\C)[C@@H](O)[C@@H](OC)C(=O)[C@H](C)C[C@H](C)/C=C/C=C/C=C/1C [Zotarolimus(ABT-578)] | > 7 |

Reference: the supplement of paper PMC6828730
